Test results from the supplement of paper PMC6206098.
± gives the uncertainty stated by the source. The sequences are guide strands of siRNAs; only the seed at positions 2 to 7 varies.

Experiments:
3LL = experiment: cell viability relative to siNT1 control; higher = less toxic; details: concentration: 10 nM; 96 h; Mus musculus;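 further: Luminescence-based viability of cells reverse transfected in 384-well plates with lipid-complexed siRNAs built on a non-toxic 19mer backbone whose passenger strand carries 2′-O-methyl groups at positions 1 and 2, triplicates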
H460 = experiment: cell viability relative to lipid-only control; HeyA8 human ovarian and H460 human lung cancer; M565 mouse liver and 3LL mouse lung cancer; siNT1 is a non-toxic control siRNA; higher = less toxic; details: concentration: 10 nM; 96 h; Homo sapiens
HeyA8 = experiment: as above; details: concentration: 10 nM; 96 h; Homo sapiens
M565 = experiment: as above; details: concentration: 10 nM; 96 h; Mus musculus
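Wherever cell viability relative to lipid-only control is given: reverse lipid transfection in 384-well plates, in triplicate, of duplexes on a non-toxic 19mer backbone with passenger strand 2′-O-methylated at positions 1 and 2, luminescence viability read-out.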

Row | Sequence | cell viability (3LL) [%] | cell viability (H460) [%] | cell viability (HeyA8) [%] | cell viability (M565) [%]
1 | UCCAAGAACAUGUAAACCAAA | 107 ± 26 | 51.4 ± 6.5 | 73.8 ± 5.6 | 36.8 ± 8.4
2 | UACCUCUACAUGUAAACCAAA | 27.2 ± 9.2 | 41.3 ± 7.3 | 49.7 ± 5.6 | 32.9 ± 9.7
3 | UCCUUGCACAUGUAAACCAAA | 34.8 ± 5.6 | 24.7 ± 0.77 | 26.3 ± 1.4 | 16.7 ± 2.8
4 | UCGGCCCACAUGUAAACCAAA | 14 ± 4.9 | 48.9 ± 5.4 | 42.1 ± 3.5 | 29.7 ± 3.2
5 | UGUAACAACAUGUAAACCAAA | 94 ± 7.5 | 91.3 ± 5.3 | 93.2 ± 5.4 | 53.9 ± 15
6 | UUUCACAACAUGUAAACCAAA | 100 ± 6.6 | 24.5 ± 2.7 | 98.7 ± 3.1 | 78.2 ± 7.9
7 | UGAAUAGACAUGUAAACCAAA | 106 ± 14 | 79.7 ± 17 | 96.4 ± 8.4 | 40.3 ± 4
8 | UUCUCCGACAUGUAAACCAAA | 64.9 ± 3.9 | 64.9 ± 9.3 | 90.8 ± 6.7 | 57.5 ± 6.3
9 | UCCGCAGACAUGUAAACCAAA | 102 ± 29 | 58.8 ± 4.5 | 78 ± 2.3 | 37.3 ± 9.9
10 | UCCAAAGACAUGUAAACCAAA | 107 ± 29 | 69 ± 8.4 | 95.9 ± 12 | 91.3 ± 20
11 | UGUCUCCACAUGUAAACCAAA | 5.77 ± 2.9 | 22.9 ± 3.5 | 3.79 ± 0.33 | 9.4 ± 1.4
12 | UAGGGCUACAUGUAAACCAAA | 32.1 ± 11 | 49.8 ± 2.3 | 10.8 ± 0.45 | 7.66 ± 2.9
13 | UUGGGGCACAUGUAAACCAAA | 5.88 ± 1.9 | 38.1 ± 2.6 | 13 ± 1 | 27.5 ± 3.3
14 | UUGCGCCACAUGUAAACCAAA | 9.86 ± 2.5 | 32.6 ± 1.9 | 58.6 ± 2 | 44.4 ± 14
15 | UCUGUUUACAUGUAAACCAAA | 97.7 ± 14 | 76.2 ± 2.4 | 73.9 ± 2 | 62.1 ± 23
16 | UAUGAGAACAUGUAAACCAAA | 105 ± 12 | 67.5 ± 9.3 | 94.8 ± 4.3 | 104 ± 24
17 | UCUGUAUACAUGUAAACCAAA | 90.3 ± 10 | 63.8 ± 10 | 84.5 ± 7.7 | 44.1 ± 8.2
18 | UCUGGCAACAUGUAAACCAAA | 97.8 ± 17 | 73.9 ± 7.6 | 82.9 ± 5.6 | 35.9 ± 7.6
19 | UAGCCAUACAUGUAAACCAAA | 87.1 ± 5.1 | 40.7 ± 2 | 58.6 ± 4.4 | 28.2 ± 7.1
20 | UGGUCGCACAUGUAAACCAAA | 73.6 ± 3.5 | 21.58 ± 0.18 | 27 ± 1.4 | 53.4 ± 5.7
21 | UAGCAAGACAUGUAAACCAAA | 81 ± 5.2 | 81.6 ± 7.5 | 86.2 ± 10 | 40.6 ± 7.7
22 | UCCCUUCACAUGUAAACCAAA | 102 ± 24 | 49.8 ± 5.5 | 51.8 ± 6.2 | 65 ± 18
23 | UGAUAUGACAUGUAAACCAAA | 58.9 ± 16 | 60.4 ± 11 | 67.2 ± 2.3 | 62.4 ± 5.8
24 | UUCCGUCACAUGUAAACCAAA | 51.3 ± 5.6 | 70.9 ± 1.2 | 89.4 ± 12 | 38.3 ± 4.9
25 | UUGGACGACAUGUAAACCAAA | 65 ± 6.2 | 70.3 ± 7 | 72.5 ± 5.8 | 29.5 ± 2.3
26 | UUUAGUUACAUGUAAACCAAA | 99.1 ± 6 | 79.8 ± 5.9 | 91.2 ± 2.4 | 95.8 ± 6
27 | UUCAUAUACAUGUAAACCAAA | 90.3 ± 14 | 55.9 ± 5.7 | 84.2 ± 7.5 | 67.5 ± 12
28 | UUCUUGGACAUGUAAACCAAA | 35.8 ± 1.8 | 35.4 ± 4.2 | 50.5 ± 3.6 | 35.7 ± 3.9
29 | UUCGCGAACAUGUAAACCAAA | 112 ± 21 | 88.2 ± 4.6 | 96.1 ± 11 | 99.7 ± 12
